The results in this text go back to US8188074B2 (priority 2001, dated 2012).

The assay deals with subcutaneous CaNT tumours. The experiment in a line: PDT induced tumour necrosis in mice bearing subcutaneous CaNT tumours. The note with it: 60 J/cm2, 72 h after illumination.
[1] abbreviates: iv 16.7 μmol/kg, drug-light interval 0 h (optimal for the compound).
Setting [2] is: iv 8.35 μmol/kg, drug-light interval 0 h (optimal for the compound).
The mark [3] stands for this setting: iv 1.67 μmol/kg, drug-light interval 1 h (optimal for the compound).
The mark [4] stands for this setting: iv 16.7 μmol/kg, drug-light interval 1 h (optimal for the compound).

Regarding `CCCCN(CCCC)c1ccc2nc3ccc(N(CCC)CCC)cc3[s+]c2c1.[I-]` [Compound 11, 3-(N,N-dibutylamino)-7-(N,N-dipropylamino)-phenothiazin-5-ium iodide], under setting [1], the “% Tumour necrosis” value was determined as 98 ± 2% and the Antitumour activity result is on record as “High (High 70-100% tumour necrosis)”.

Consider `CCCN(CCC)c1ccc2nc3ccc(N(C)C)cc3[s+]c2c1.[I-]` [Compound 9, 3-(N,N-dimethylamino)-7-(N,N-dipropylamino)-phenothiazin-5-ium iodide], for which, under setting [1], the “% Tumour necrosis” value came out at 34 ± 2% and the Antitumour activity result is “Low (Low 11-39% tumour necrosis)”.

Turning to `CCCCCN(CCCCC)c1ccc2nc3ccc(N4CCCC4C)cc3[s+]c2c1` (stereo not shown) [Compound 21, 3-(2-methylpyrrolidino)-7-(N,N-di-n-pentylamino)-phenothiazin-5-ium], under setting [2], the “% Tumour necrosis” value was determined as 90 ± 4% and the Antitumour activity entry is given as “High (High 70-100% tumour necrosis)”.

Consider “3,7-(tetra-n-pentylamino)-phenothiazin-5-ium [Compound 3]”, for which, under setting [3], the “% Tumour necrosis” value is reported as 88 ± 6% and the Antitumour activity result is “High (High 70-100% tumour necrosis)”.

Take `CCCCCN(CCCCC)c1ccc2nc3ccc(N4CCCCC4CC)cc3[s+]c2c1` (stereo not shown) [Compound 20, 3-(2-ethylpiperidino)-7-(N,N-di-n-pentylamino)-phenothiazin-5-ium]: under setting [1], the “% Tumour necrosis” value worked out at 86 ± 2% and the Antitumour activity entry is on record as “High (High 70-100% tumour necrosis)”.

Regarding `CCCCCCN(CCCCCC)c1ccc2nc3ccc(N(CCCCCC)CCCCCC)cc3[s+]c2c1.[Br-]` [Compound 4], under setting [2], the “% Tumour necrosis” value is 47 ± 12% and the Antitumour activity entry is recorded as “Medium (Medium 40-69% tumour necrosis)”.

For the molecule “3,7-(N,N-tetra-iso-butylamino)-phenothiazin-5-ium [Compound 7]”, under setting [1], the “% Tumour necrosis” value is recorded as 78 ± 3% and the Antitumour activity result is reported as “High (High 70-100% tumour necrosis)”.

Take `[I-].c1cc2nc3ccc(N4CCOCC4)cc3[s+]c2cc1N1CCOCC1` [Compound 22]: under setting [1], the “% Tumour necrosis” value is reported as 17 ± 6% and the Antitumour activity result is “Low (Low 11-39% tumour necrosis)”.

Take `CCCN(CCC)c1ccc2nc3ccc(N(CCO)CCO)cc3[s+]c2c1.[I-]` [Compound 26]: under setting [1], the “% Tumour necrosis” value is listed as 17 ± 10% and the Antitumour activity result is listed as “Low (Low 11-39% tumour necrosis)”.

For the molecule “3,7-(tetra-iso-pentylamino)-phenothiazin-5-ium [Compound 8]”, under setting [2], the “% Tumour necrosis” value amounted to 74 ± 12% and the Antitumour activity entry is on record as “High (High 70-100% tumour necrosis)”.

In the case of “3,7-(tetra-n-propylamino)-phenothiazin-5-ium [Compound 1]”, under setting [1], the “% Tumour necrosis” value was 93 ± 3% and the Antitumour activity entry is on record as “High (High 70-100% tumour necrosis)”.

Turning to `[I-].c1ccc(CN(Cc2ccccc2)c2ccc3nc4ccc(N(Cc5ccccc5)Cc5ccccc5)cc4[s+]c3c2)cc1` [Compound 29], under setting [4], the “% Tumour necrosis” value was 40 ± 17% and the Antitumour activity result is “Medium (Medium 40-69% tumour necrosis)”.

On to `CCCCCCN(CCCCCC)c1ccc2nc3ccc(N(CCC)CCC)cc3[s+]c2c1.[I-]` [Compound 13, 3-(N,N-dihexylamino)-7-(N,N-dipropylamino)-phenothiazin-5-ium iodide], for which, under setting [2], the “% Tumour necrosis” value is 85 ± 3% and the Antitumour activity result is on record as “High (High 70-100% tumour necrosis)”.

With `CCCCCN(CCCCC)c1ccc2nc3ccc(N4CCOCC4)cc3[s+]c2c1.[I-]` [Compound 25], under setting [4], the “% Tumour necrosis” value was determined as 16 ± 5% and the Antitumour activity entry is reported as “Low (Low 11-39% tumour necrosis)”.

As to `CCCCCN(CCCCC)c1ccc2nc3ccc(N(CCC)CCC)cc3[s+]c2c1.[I-]` [Compound 12, 3-(N,N-dipentylamino)-7-(N,N-dipropylamino)-phenothiazin-5-ium iodide], under setting [2], the “% Tumour necrosis” value was 38 ± 14% and the Antitumour activity result is given as “Low (Low 11-39% tumour necrosis)”.

With `CCCCN(CCCC)c1ccc2nc3ccc(N(CCC(C)C)CCC(C)C)cc3[s+]c2c1` [Compound 15, 3-(N,N-di-n-butylamino)-7-(N,N-di-iso-pentylamino)-phenothiazin-5-ium], under setting [1], the “% Tumour necrosis” value is given as 95 ± 3% and the Antitumour activity result was “High (High 70-100% tumour necrosis)”.

For `[I-].c1cc2nc3ccc(N4CCCCC4)cc3[s+]c2cc1N1CCCCC1` [Compound 19], under setting [1], the “% Tumour necrosis” value is listed as 36 ± 10% and the Antitumour activity entry was “Low (Low 11-39% tumour necrosis)”.

Take `CCN(CC)c1ccc2nc3ccc(N(CC)CC)cc3[s+]c2c1.[Cl-]` [Compound 6, ethylene blue, reference compound]: under setting [4], the “% Tumour necrosis” value was 2 ± 2% and the Antitumour activity result is on record as “None (None 0-10% tumour necrosis)”.

Regarding `CCCCCCCCN(C)c1ccc2nc3ccc(N(C)CCCCCCCC)cc3[s+]c2c1.[Br-]` [Compound 17], under setting [1], the “% Tumour necrosis” value stood at 61 ± 11% and the Antitumour activity result is given as “Medium (Medium 40-69% tumour necrosis)”.

As to “3-(N,N-diethanolamino)-7-(N,N-dipentylamino)-phenothiazin-5-ium iodide [Compound 28]”, under setting [2], the “% Tumour necrosis” value stood at 75 ± 4% and the Antitumour activity entry is recorded as “High (High 70-100% tumour necrosis)”.

Regarding `CCCN(CCC)c1ccc2nc3ccc(N4CCOCC4)cc3[s+]c2c1.[I-]` [Compound 23], under setting [1], the “% Tumour necrosis” value is 14 ± 7% and the Antitumour activity entry was “Low (Low 11-39% tumour necrosis)”.

For the molecule `CCN(c1ccc2nc3ccc(N(CC)C4CCCCC4)cc3[s+]c2c1)C1CCCCC1` [Compound 18, 3-((N-ethyl-N-cyclohexyl)amino)-7((N-ethyl)-N-cyclohexyl)amino-phenothiazin-5-ium], under setting [1], the “% Tumour necrosis” value was 49 ± 14% and the Antitumour activity entry was “Medium (Medium 40-69% tumour necrosis)”.

As to `CCCN(CCC)c1ccc2nc3ccc(N(CC)CC)cc3[s+]c2c1.[I-]` [Compound 10, 3-(N,N-diethylamino)-7-(N,N-dipropylamino)-phenothiazin-5-ium iodide], under setting [1], the “% Tumour necrosis” value came out at 45 ± 15% and the Antitumour activity result is listed as “Medium (Medium 40-69% tumour necrosis)”.

Turning to `CCCCN(CCCC)c1ccc2nc3ccc(N4CCOCC4)cc3[s+]c2c1.[I-]` [Compound 24], under setting [4], the “% Tumour necrosis” value was found to be 10 ± 7% and the Antitumour activity result is recorded as “None (None 0-10% tumour necrosis)”.

In the case of `CCCCCN(CCCCC)c1ccc2nc3ccc(N(CCCC)CCCC)cc3[s+]c2c1` [Compound 14, 3-(N,N-di-n-butylamino)-7-(N,N-di-n-pentylamino)-phenothiazin-5-ium], under setting [4], the “% Tumour necrosis” value is 60 ± 13% and the Antitumour activity entry is “Medium (Medium 40-69% tumour necrosis)”.

Turning to `CCCCCCCN(CCCCCCC)c1ccc2nc3ccc(N(CC)CC)cc3[s+]c2c1.[I-]` [Compound 16], under setting [4], the “% Tumour necrosis” value amounted to 25 ± 13% and the Antitumour activity entry is on record as “Low (Low 11-39% tumour necrosis)”.
